From patent publication US20170023576A1, “NOTCH3 ANTIBODIES AND USES THEREOF” (ONCOMED PHARMACEUTICALS, INC., priority 2014, published 2017)

Biological target: T1, extracellular domain of human NOTCH3 (Homo sapiens, UniProt Q9UM47)
T1 construct: IHC assays using HEK-293 cells transiently transfected with NOTCH1, NOTCH2, NOTCH3, or NOTCH4 ECD constructs; expressed in transfected cells; host or cells: HEK-293, transiently transfected
Assay: Screening of anti-NOTCH3 antibodies in IHC assays (FFPE)
Format: binding
Description: Immunohistochemistry (IHC) is the localization of antigens in tissue sections by the use of specific antibodies through antigen-antibody interactions that are then visualized and detected. However, finding an antibody that works well in an IHC assay, particularly on formalin-fixed paraffin embedded (FFPE) material, can be a difficult endeavor. Common problems include, but are not limited to, strong background staining and weak antigen staining. Many antibodies that work very well in fluorescence-activated cell sorting (FACS) assays, ELISAs, or Western blot analyses have undesirable characteristics in an IHC assay. Therefore an extensive screening project was undertaken to identify an antibody that specifically bound the extracellular domain of human NOTCH3 that would be appropriate for use in IHC assays. In addition to evaluating commercially available anti-NOTCH3 antibodies, murine anti-NOTCH3 monoclonal antibodies were produced and evaluated.
Antibodies were generated against recombinant human NOTCH3 protein amino acids 350-580 (NOTCH3 EGFs 9-14). Mice (n=3) were immunized with NOTCH3 protein using standard techniques. […]
A NOTCH3 immunohistochemistry (IHC) assay was developed and optimized using the murine monoclonal antibody 122M23 identified in Example 3. […] Specific binding was detected using an ADVANCE kit (Dako, Carpinteria Calif.) including diaminobenzidine (DAB) for 5 minutes. […]

T1 sequence (Q9UM47 40-1643 limits assumed): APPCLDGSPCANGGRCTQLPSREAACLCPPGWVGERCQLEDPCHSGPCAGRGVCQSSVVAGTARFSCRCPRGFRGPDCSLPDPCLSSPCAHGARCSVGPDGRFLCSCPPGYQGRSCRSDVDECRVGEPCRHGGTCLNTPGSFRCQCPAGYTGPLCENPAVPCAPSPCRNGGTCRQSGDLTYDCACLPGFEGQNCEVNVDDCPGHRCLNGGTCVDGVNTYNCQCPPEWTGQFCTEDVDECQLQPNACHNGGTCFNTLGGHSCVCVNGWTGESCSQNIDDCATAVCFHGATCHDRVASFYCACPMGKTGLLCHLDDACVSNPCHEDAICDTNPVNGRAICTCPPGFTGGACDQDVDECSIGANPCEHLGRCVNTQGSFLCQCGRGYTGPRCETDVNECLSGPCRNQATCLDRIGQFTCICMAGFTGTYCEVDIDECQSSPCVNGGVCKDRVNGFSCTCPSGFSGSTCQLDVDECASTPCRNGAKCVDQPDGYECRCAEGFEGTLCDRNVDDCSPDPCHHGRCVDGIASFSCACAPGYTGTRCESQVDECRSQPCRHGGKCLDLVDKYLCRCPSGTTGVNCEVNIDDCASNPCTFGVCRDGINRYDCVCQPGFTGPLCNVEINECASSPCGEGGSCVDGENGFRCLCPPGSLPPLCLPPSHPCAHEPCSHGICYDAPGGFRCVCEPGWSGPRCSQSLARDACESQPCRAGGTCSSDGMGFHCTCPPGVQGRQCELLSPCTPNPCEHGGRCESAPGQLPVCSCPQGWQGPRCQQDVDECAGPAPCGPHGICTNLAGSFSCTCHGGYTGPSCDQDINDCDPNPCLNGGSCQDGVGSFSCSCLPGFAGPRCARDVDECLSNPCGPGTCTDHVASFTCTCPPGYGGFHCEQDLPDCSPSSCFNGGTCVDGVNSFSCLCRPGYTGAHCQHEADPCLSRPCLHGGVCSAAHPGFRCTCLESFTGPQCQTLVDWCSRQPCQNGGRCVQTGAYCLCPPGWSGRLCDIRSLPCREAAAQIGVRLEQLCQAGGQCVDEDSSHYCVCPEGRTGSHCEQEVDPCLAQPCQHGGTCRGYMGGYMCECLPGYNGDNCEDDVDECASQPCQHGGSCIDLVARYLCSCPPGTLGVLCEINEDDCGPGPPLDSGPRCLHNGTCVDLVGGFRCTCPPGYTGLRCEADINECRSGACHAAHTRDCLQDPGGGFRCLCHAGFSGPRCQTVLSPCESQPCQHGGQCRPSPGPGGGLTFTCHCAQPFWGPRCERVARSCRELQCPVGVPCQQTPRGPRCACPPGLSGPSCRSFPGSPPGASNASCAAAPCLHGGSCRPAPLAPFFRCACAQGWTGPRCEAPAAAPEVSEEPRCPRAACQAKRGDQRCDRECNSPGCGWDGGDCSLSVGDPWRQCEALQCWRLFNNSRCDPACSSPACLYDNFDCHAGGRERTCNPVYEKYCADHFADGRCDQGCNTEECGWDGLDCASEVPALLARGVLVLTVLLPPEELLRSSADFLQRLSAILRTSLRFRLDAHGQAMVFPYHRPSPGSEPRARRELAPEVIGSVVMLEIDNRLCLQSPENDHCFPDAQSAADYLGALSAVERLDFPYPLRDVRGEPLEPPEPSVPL

staining in the IHC assay against the desired criteria (NOTCH3 ECD specific, membrane localized, minimal background) (FFPE pellets of HEK-293 cells transfected with NOTCH1-4 ECD constructs, positive and negative control tissues): met all of the desired criteria
B1: 122M23: murine monoclonal anti-NOTCH3 antibody; VH SEQ ID NO:34, VL SEQ ID NO:38; hybridoma ATCC PTA-121154 (antibody, V domains shown)
VH: QVQLQQSGAELARPGASVKMSCKASGYTFTKYTIHWVAQKPGQGLEWIGYINPSNDYTNYNQTFKDKATLTADKSSTTAYMQLISLTSADSTVFYCARGTTPYSLDYWGQGTSVTVSS
VL: DIVLTQSPASLAVSLGQRATISCRASESVDNYGMSFMNWFQQKPGQSPKLLIYAASNQGSGVPARFSGSGSGTNFSLNIHPMEEDDTAVYFCLQSKEVPYTFGGGTKLEIKR
modifications: 122M23 Heavy chain variable region without predicted signal sequence; 122M23 Light chain variable region without predicted signal sequence
notes: murine monoclonal anti-NOTCH3 antibody; hybridoma ATCC PTA-121154
binding specificity (IHC reagent antibody): specific for the extracellular domain of human NOTCH3
